# Data published in the supplement of paper PMC7580552.
# Counter-ions that a name gives are not always drawn. The list shows a part of the results. Many values rest on one well or one pass, so single values are uncertain.
# Test system: Escherichia coli W3110
# Experiment: planktonic growth (OD600) relative to untreated control; higher = more growth
# Conditions: 10 µM; 20-24 h; 30 °C; TB
# 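Also: stationary (unshaken) cultures in 96-well plates, started at OD600 0.05 from mid-exponential cells, with compounds supplied from DMSO stocks.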
row,SMILES,planktonic growth [%]
1,CCOC(=O)[C@H](CCc1ccccc1)N[C@H]1CCc2ccccc2N(CC(=O)O)C1=O [Benazepril hydrochloride],96
2,CCOC(=O)OC(C)OC(=O)[C@@H]1N2C(=O)[C@@H](NC(=O)[C@H](N)c3ccccc3)[C@H]2SC1(C)C (stereo partly drawn) [Bacampicillin hydrochloride],47
3,CC(C)(C)NC[C@H](O)COc1nsnc1N1CCOCC1 [Timolol maleate salt],94
4,O=C(Nc1cccc2c(=O)cc(-c3nnn[nH]3)oc12)c1ccc(OCCCCc2ccccc2)cc1 [Pranlukast],112
5,NCCCC[C@H](N[C@@H](CCc1ccccc1)C(=O)O)C(=O)N1CCC[C@H]1C(=O)O [Lisinopril],93
6,CC(C)C(=O)OCC(=O)[C@@]12O[C@H](C3CCCCC3)O[C@@H]1C[C@H]1[C@@H]3CCC4=CC(=O)C=C[C@]4(C)[C@H]3[C@@H](O)C[C@@]12C [Ciclesonide],104
7,CC(C)NCC(O)COc1ccc(COCCOC(C)C)cc1 (stereo not drawn) [Bisoprolol fumarate],112
8,Nc1nc(=S)c2ncn([C@@H]3O[C@H](CO)[C@@H](O)[C@H]3O)c2[nH]1 [Thioguanosine],82
9,O=C1CN2Cc3c(ccc(Cl)c3Cl)N=C2N1 [Anagrelide],104
10,Nc1nc(F)nc2c1ncn2[C@@H]1O[C@H](CO)[C@@H](O)[C@@H]1O [Fludarabine],38
11,CC[C@H]1OC(=O)[C@H](C)[C@@H](O[C@H]2C[C@@](C)(OC)[C@@H](O)[C@H](C)O2)[C@H](C)[C@@H](O[C@@H]2O[C@H](C)C[C@H](N(C)C)[C@H]2O)[C@](C)(O)C[C@@H](C)/C(=N\OCOCCOC)[C@H](C)[C@@H](O)[C@]1(C)O [Roxithromycin],53
12,Nc1nc(=O)c2nc(CNc3ccc(C(=O)N[C@@H](CCC(=O)O)C(=O)O)cc3)cnc2[nH]1 [Folic acid],96
13,CC(=O)N[C@@H](CC(C)C)C(=O)O [N-Acetyl-L-leucine],92
14,COc1c(O[C@@H]2O[C@H](CO)[C@@H](O)[C@H](O)[C@H]2O)cc2c(c1OC)-c1ccc(SC)c(=O)cc1[C@@H](NC(C)=O)CC2 [Thiocolchicoside],86
15,CN(C)CCN(Cc1cccs1)c1ccccn1 [Methapyrilene hydrochloride],97
16,NC(=O)N1c2ccccc2C=Cc2ccccc21 [Carbamazepine],94
17,Clc1ccc(C(Cn2ccnc2)OCc2c(Cl)cccc2Cl)c(Cl)c1 (stereo not drawn) [Isoconazole],97
18,O=C(Cn1ccnc1[N+](=O)[O-])NCCO [Etanidazole],111
